The values that follow come from paper PMC4336329 (PLoS ONE, 2015).

The structures appear in SMILES notation. The whole screen tested about 310,000 compounds, of which about 2,200 (0.71%) showed an effect of 50% or more. Effects have a minus sign here. The list shows a part of the results.

Sequence of human ether-à-go-go-related gene (hERG) potassium channel (Q12809 whole entry, looked up): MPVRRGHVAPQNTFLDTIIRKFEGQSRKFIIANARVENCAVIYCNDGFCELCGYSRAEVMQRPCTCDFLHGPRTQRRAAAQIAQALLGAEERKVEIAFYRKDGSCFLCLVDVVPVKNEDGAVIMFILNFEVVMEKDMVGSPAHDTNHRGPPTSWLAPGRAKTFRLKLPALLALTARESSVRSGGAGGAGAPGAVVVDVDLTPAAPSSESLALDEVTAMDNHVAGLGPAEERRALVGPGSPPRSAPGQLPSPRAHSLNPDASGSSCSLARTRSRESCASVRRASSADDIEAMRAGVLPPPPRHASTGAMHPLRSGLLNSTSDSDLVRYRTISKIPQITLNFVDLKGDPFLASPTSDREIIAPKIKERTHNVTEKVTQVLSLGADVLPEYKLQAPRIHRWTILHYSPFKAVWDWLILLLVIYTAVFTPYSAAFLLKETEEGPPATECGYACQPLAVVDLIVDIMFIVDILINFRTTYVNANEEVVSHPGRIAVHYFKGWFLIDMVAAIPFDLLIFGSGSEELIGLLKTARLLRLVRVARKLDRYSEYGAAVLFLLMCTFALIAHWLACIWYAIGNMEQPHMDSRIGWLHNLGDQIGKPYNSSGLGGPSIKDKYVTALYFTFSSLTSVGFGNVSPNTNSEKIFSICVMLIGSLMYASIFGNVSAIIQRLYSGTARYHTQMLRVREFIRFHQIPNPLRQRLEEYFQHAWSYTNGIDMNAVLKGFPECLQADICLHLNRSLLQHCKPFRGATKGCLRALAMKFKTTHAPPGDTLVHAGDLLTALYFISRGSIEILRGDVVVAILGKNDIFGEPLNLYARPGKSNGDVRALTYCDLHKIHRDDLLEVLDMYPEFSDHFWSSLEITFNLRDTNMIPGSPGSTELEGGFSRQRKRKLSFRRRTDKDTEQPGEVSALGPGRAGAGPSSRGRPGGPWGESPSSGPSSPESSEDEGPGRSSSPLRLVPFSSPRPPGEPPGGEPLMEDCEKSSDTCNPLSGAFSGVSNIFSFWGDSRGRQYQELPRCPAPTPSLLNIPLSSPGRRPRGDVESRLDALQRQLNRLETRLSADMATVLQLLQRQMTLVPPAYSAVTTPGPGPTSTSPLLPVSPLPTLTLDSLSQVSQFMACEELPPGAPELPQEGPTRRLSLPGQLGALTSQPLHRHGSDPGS

This assay addresses human ether-à-go-go-related gene (hERG) potassium channel (human, UniProt Q12809). Put plainly: primary screen, population patch clamp on CHO cells stably expressing hERG.
Regarding `COc1ccc([C@H]2/C=C\CN(C(=O)CC(C)(C)C)[C@@H](C)C(=O)N2Cc2ccc(F)cc2)cc1`, the “hERG current change (%, negative = inhibition) at 1uM” value was 11.1%. As for `Cc1cc(NC(=O)CN2C(=O)NC3(CCCCCC3)C2=O)no1`, the “hERG current change (%, negative = inhibition) at 1uM” value came to 4.04%. In the case of `Nc1c(NCCCN2CCOCC2)c2ccccc2oc1=O`, the “hERG current change (%, negative = inhibition) at 1uM” value was found to be 7.65%. On to `Cc1ccc(C2=Nn3c(COc4ccc(Cl)cc4)nnc3SC2CC(=O)O)cc1` (stereo not drawn), for which the “hERG current change (%, negative = inhibition) at 1uM” value was 7.29%.

Consider `Cc1[nH]c2ccccc2c1C(C[N+](=O)[O-])c1cccc(O)c1` (stereo not drawn), for which the “hERG current change (%, negative = inhibition) at 1uM” value was 11.8%.

As to `O=C(c1cc(S(=O)(=O)N2CCC3(CC2)OCCO3)ccc1F)N1CCC2(CC1)OCCO2`, the “hERG current change (%, negative = inhibition) at 1uM” value is given as -4.21%. Then `CCOc1ccc(NC(=S)Nc2ccc(OCc3ccccc3)cc2)cc1`, with 6.56%. Regarding `O=C1/C(=C/c2ccccc2)SC(=S)N1CC(=O)N1CCCCC1c1cccnc1` (stereo not drawn), the “hERG current change (%, negative = inhibition) at 1uM” value is reported as 8.82%.

As to `CCC(/C=C1\Sc2ccc(OC)cc2N1CCO)=C\c1sc2ccc(OC)cc2[n+]1CCO.[Cl-]`, the “hERG current change (%, negative = inhibition) at 1uM” value is -5.4%. Then `O=C(N/N=C/c1ccccn1)c1ccc(N/N=C/c2ccccn2)cc1.O=S(=O)(O)O`, with 21.4%. As for `Cc1cc(C)c(S(=O)(=O)c2ccccc2)c(N(C)C)n1`, the “hERG current change (%, negative = inhibition) at 1uM” value was 12.2%. On to `Cc1cc(C)cc(NC(=O)C2CCCN2S(=O)(=O)c2cccc3cccnc23)c1` (stereo not drawn), for which the “hERG current change (%, negative = inhibition) at 1uM” value was -0.644%. In the case of `COc1ccc(C(=O)N2CCC(C(=O)c3ccc(F)cc3)CC2)cc1`, the “hERG current change (%, negative = inhibition) at 1uM” value is -66.1%. Then `CCOc1ccccc1NC(=O)CSc1nnc(-c2ccccn2)n1Cc1ccco1`, with -4.82%; and `O=C(N/N=C/c1cccs1)/C(=C/c1ccccc1)NC(=O)c1ccccc1`, with 4.29%; and `CN(C)C(=O)CSc1nnc(CCN)o1.Cl`, with 0.24%.

`COc1ccc(S(=O)(=O)NCC(c2ccco2)N2CCOCC2)cc1` (stereo not drawn): the “hERG current change (%, negative = inhibition) at 1uM” value is -8.75%. Consider `O=C1Cc2ccccc2C(=O)N1Cc1ccccc1`, for which the “hERG current change (%, negative = inhibition) at 1uM” value was determined as 7.56%. As for `O=C(CSc1ncccn1)Nc1ccc(N2CCOCC2)cc1`, the “hERG current change (%, negative = inhibition) at 1uM” value is 6.92%. In the case of `Cn1c(C(=O)N2CCC(C(=O)N3CCN(Cc4ccc5c(c4)OCO5)CC3)CC2)cc2sccc21` it was -3.6%. In the case of `COc1ccc(NC(=O)c2sc3ncn(CC(=O)N4CCCCC4)c(=O)c3c2C)cc1OC` it was 17.6%; in that of `CC(C)NC(=O)COc1coc(CN2CCN(c3ccccc3)CC2)cc1=O`, 10%; in that of `COc1cc(Cl)ccc1OCc1cc(C(=O)N2CCCC(OC)C2)no1` (stereo not drawn), 8.17%.

Take `CN(CCN1CCOCC1)C(=O)c1cc(COc2ccc(F)c(F)c2)on1`: the “hERG current change (%, negative = inhibition) at 1uM” value is 8.85%.

As to `O=C(/C=C/c1ccccc1)Nn1cnc2ccccc2c1=O`, the “hERG current change (%, negative = inhibition) at 1uM” value is listed as -1.46%. For `CC(C)C[C@H](NC(=O)N1CCn2c1nc1ccccc12)C(=O)NC1CCCCC1`, the “hERG current change (%, negative = inhibition) at 1uM” value came to 11.7%. Then `O=[N+]([O-])c1cn(Cc2ccc(Cl)cc2)cn1`, with 10.8%; and `Cc1ccc2nc(Cl)c(/C=N/NC(=O)[C@H]3C[C@@H]3c3ccccc3)cc2c1`, with 12.6%.

With `CCn1c(SCC(=O)c2[nH]c(C)c(C(C)=O)c2C)nnc1-c1ccncc1`, the “hERG current change (%, negative = inhibition) at 1uM” value is on record as 0.209%.

As to `CC(C)(C)C1C/C(=C/c2ccccn2)C(=O)/C(=C/c2ccccn2)C1` (stereo not drawn), the “hERG current change (%, negative = inhibition) at 1uM” value is recorded as 1.84%. Then `CCOC(=O)c1sc(=S)n(-c2ccccc2)c1SC`, with 6.27%. Consider `COc1cc2c(cc1OC)-c1cc(Nc3ccc(N(C)C)cc3)nc(=O)n1CC2`, for which the “hERG current change (%, negative = inhibition) at 1uM” value turned out to be 16.8%.

Consider `Nn1c(SCC(=O)Nc2nccs2)nnc1-c1ccccn1`, for which the “hERG current change (%, negative = inhibition) at 1uM” value is given as 10.3%.

As for `CC1(c2ccccc2Cl)NC(=O)N(CC(=O)N2c3ccccc3NC(=O)C2(C)C)C1=O` (stereo not drawn), the “hERG current change (%, negative = inhibition) at 1uM” value is reported as 0.853%. Then `CCOC(=O)CSc1nsc(SCC(=O)OCC)c1C#N`, with 15.7%; and `CC(/C=N/NC(=O)c1ccncc1)=C\c1ccc(C(C)C)cc1`, with -0.974%. Consider `CSc1ccccc1NC(=O)CN(Cc1ccccc1)S(C)(=O)=O`, for which the “hERG current change (%, negative = inhibition) at 1uM” value was 12.1%. Consider `COc1ccc(S(=O)(=O)Nc2cccnc2)cc1`, for which the “hERG current change (%, negative = inhibition) at 1uM” value came out at 13.6%. Consider `CN(CCCC(=O)Nc1ccc(Br)cc1F)S(=O)(=O)c1ccccc1`, for which the “hERG current change (%, negative = inhibition) at 1uM” value is listed as 6.06%.

For `CCCCCCSc1ccc([C@H]2N[C@@](C)(C(=O)OC)[C@H]3C(=O)N(CC)C(=O)[C@@H]23)cc1.O=C(O)C(F)(F)F`, the “hERG current change (%, negative = inhibition) at 1uM” value was -4.34%. As to `COc1ccc(CCNC(=O)c2cc3c(=O)n4ccccc4nc3n(C3CCCCC3)c2=N)cc1`, the “hERG current change (%, negative = inhibition) at 1uM” value is -67.6%. In the case of `O=C(O)CC(C(=O)Nc1ccc(Cl)cc1)N1CCCCCC1` (stereo not drawn), the “hERG current change (%, negative = inhibition) at 1uM” value was 17.1%. In the case of `CCOc1ccc(C(=O)NCC(=O)NNC(=O)CN(C)S(=O)(=O)c2ccc(Cl)cc2)cc1` it was 18.3%; in that of `CC(C)Oc1ccc(S(=O)(=O)N2CCCCC2)cc1NC(=O)C1CCCC1`, 5.7%. In the case of `O=C(CCC1CCCN(C(=O)c2ccc3c(c2)OCO3)C1)NCc1ccc(F)c(F)c1` (stereo not drawn) it was 6.93%; in that of `O=C(Nc1nnc(C2CC2)s1)C1CC(=O)N(c2ccc3c(c2)OCCO3)C1` (stereo not drawn), 5.14%; in that of `OC[C@H]1O[C@H](OC[C@H]2OC(O)[C@H](O)[C@@H](O)[C@@H]2O)[C@H](O)[C@@H](O)[C@@H]1O` (stereo partly drawn), 16.9%. Then `O=C(COC(=O)c1ccccn1)NCc1ccccc1`, with 5.09%; and `Cn1c(CNC(=O)c2ccco2)nnc1SCC(=O)Nc1cccc(F)c1`, with 12.2%; and `CC(C)(SC(=S)N1CCOCC1)C(=O)O`, with 9.22%.

In the case of `CCOc1ccc(NC(=O)CN(C)C(=O)CCc2ccccc2Cl)cc1OCC`, the “hERG current change (%, negative = inhibition) at 1uM” value is recorded as -2.56%. Consider `C=C(C)CSc1nc2c(c(=O)[nH]c(=O)n2C)n1Cc1ccccc1`, for which the “hERG current change (%, negative = inhibition) at 1uM” value was 3.66%.

For the compound `O=C(Nc1cccnc1)C1=NN(C2CCS(=O)(=O)C2)C(=O)CC1` (stereo not drawn), the “hERG current change (%, negative = inhibition) at 1uM” value came out at 18.7%. In the case of `COc1ccccc1/C=C1/C(=O)ON=C1C` it was 9.9%.
